Residue numbers refer to the chain shown, from its start. The list shows a part of the results.
B1: UCUGACG (DNA:RNA)
RNA: GGGAGACCGGAAUUCAGAUUGUCCUCUGACGUUAAAUCCCGUCGUAGCCACCA
DNA 1: CAATCTGAATTCCGGTCTCCC
DNA 2: TGGTGGCTACGACGGGATT
B2: UGCCUGU (DNA:RNA)
RNA: B1 RNA with C26G, U27C, G28C, A29U, C30G, G31U
DNA 1: CAATCTGAATTCCGGTCTCCC
DNA 2: TGGTGGCTACGACGGGATT
B3: GGCUGUU (DNA:RNA)
RNA: GGGAGACCGGAAUUCAGAUUGUCCGGCUGUUUUAAAUCCCGUCGUAGCCACCA
DNA 1: CAATCTGAATTCCGGTCTCCC
DNA 2: TGGTGGCTACGACGGGATT
B4: CAAGCUA (DNA:RNA)
RNA: B3 RNA with G25C, G26A, C27A, U28G, G29C, U31A
DNA 1: CAATCTGAATTCCGGTCTCCC
DNA 2: TGGTGGCTACGACGGGATT
B5: UAGGGAG (DNA:RNA)
RNA: B1 RNA with C26A, U27G, A29G, C30A
DNA 1: CAATCTGAATTCCGGTCTCCC
DNA 2: TGGTGGCTACGACGGGATT
B6: GUAGUUG (DNA:RNA)
RNA: B3 RNA with G26U, C27A, U28G, G29U, U31G
DNA 1: CAATCTGAATTCCGGTCTCCC
DNA 2: TGGTGGCTACGACGGGATT
B7: GGGCAGU (DNA:RNA)
RNA: B3 RNA with C27G, U28C, G29A, U30G
DNA 1: CAATCTGAATTCCGGTCTCCC
DNA 2: TGGTGGCTACGACGGGATT
B8: AAAUGGG (DNA:RNA)
RNA: B3 RNA with G25A, G26A, C27A, U30G, U31G
DNA 1: CAATCTGAATTCCGGTCTCCC
DNA 2: TGGTGGCTACGACGGGATT
B9: CCCUUGA (DNA:RNA)
RNA: B3 RNA with G25C, G26C, G29U, U30G, U31A
DNA 1: CAATCTGAATTCCGGTCTCCC
DNA 2: TGGTGGCTACGACGGGATT
B10: CUCUAUU (DNA:RNA)
RNA: B3 RNA with G25C, G26U, G29A
DNA 1: CAATCTGAATTCCGGTCTCCC
DNA 2: TGGTGGCTACGACGGGATT
B11: CAUGGAG (DNA:RNA)
RNA: B1 RNA with U25C, C26A, A29G, C30A
DNA 1: CAATCTGAATTCCGGTCTCCC
DNA 2: TGGTGGCTACGACGGGATT
B12: GAGUCGU (DNA:RNA)
RNA: B3 RNA with G26A, C27G, G29C, U30G
DNA 1: CAATCTGAATTCCGGTCTCCC
DNA 2: TGGTGGCTACGACGGGATT
B13: GUCACUU (DNA:RNA)
RNA: B3 RNA with G26U, U28A, G29C
DNA 1: CAATCTGAATTCCGGTCTCCC
DNA 2: TGGTGGCTACGACGGGATT
B14: GCGGAGU (DNA:RNA)
RNA: B1 RNA with U25G, U27G, C30G, G31U
DNA 1: CAATCTGAATTCCGGTCTCCC
DNA 2: TGGTGGCTACGACGGGATT
B15: UCAUGGC (DNA:RNA)
RNA: B3 RNA with G25U, G26C, C27A, U30G, U31C
DNA 1: CAATCTGAATTCCGGTCTCCC
DNA 2: TGGTGGCTACGACGGGATT
B16: UAUUAUA (DNA:RNA)
RNA: B1 RNA with C26A, G28U, C30U, G31A
DNA 1: CAATCTGAATTCCGGTCTCCC
DNA 2: TGGTGGCTACGACGGGATT
B17: AUGACAC (DNA:RNA)
RNA: GGGAGACCGGAAUUCAGAUUGUCCAUGACACUUAAAUCCCGUCGUAGCCACCA
DNA 1: CAATCTGAATTCCGGTCTCCC
DNA 2: TGGTGGCTACGACGGGATT
B18: ACCGAGG (DNA:RNA)
RNA: B1 RNA with U25A, U27C, C30G
DNA 1: CAATCTGAATTCCGGTCTCCC
DNA 2: TGGTGGCTACGACGGGATT
B19: CCAGAUC (DNA:RNA)
RNA: B1 RNA with U25C, U27A, C30U, G31C
DNA 1: CAATCTGAATTCCGGTCTCCC
DNA 2: TGGTGGCTACGACGGGATT
B20: ACGAGAA (DNA:RNA)
RNA: B17 RNA with U26C, C29G, C31A
DNA 1: CAATCTGAATTCCGGTCTCCC
DNA 2: TGGTGGCTACGACGGGATT
B21: UGCUUAG (DNA:RNA)
RNA: B3 RNA with G25U, G29U, U30A, U31G
DNA 1: CAATCTGAATTCCGGTCTCCC
DNA 2: TGGTGGCTACGACGGGATT
B22: CGUCCGA (DNA:RNA)
RNA: B17 RNA with A25C, U26G, G27U, A28C, A30G, C31A
DNA 1: CAATCTGAATTCCGGTCTCCC
DNA 2: TGGTGGCTACGACGGGATT
B23: GGAAAAC (DNA:RNA)
RNA: B17 RNA with A25G, U26G, G27A, C29A
DNA 1: CAATCTGAATTCCGGTCTCCC
DNA 2: TGGTGGCTACGACGGGATT
B24: UAAUCUC (DNA:RNA)
RNA: B17 RNA with A25U, U26A, G27A, A28U, A30U
DNA 1: CAATCTGAATTCCGGTCTCCC
DNA 2: TGGTGGCTACGACGGGATT
B25: GCCAUAA (DNA:RNA)
RNA: B17 RNA with A25G, U26C, G27C, C29U, C31A
DNA 1: CAATCTGAATTCCGGTCTCCC
DNA 2: TGGTGGCTACGACGGGATT
B26: CCUAGGG (DNA:RNA)
RNA: B1 RNA with U25C, G28A, A29G, C30G
DNA 1: CAATCTGAATTCCGGTCTCCC
DNA 2: TGGTGGCTACGACGGGATT
B27: UUGAUCU (DNA:RNA)
RNA: B17 RNA with A25U, C29U, A30C, C31U
DNA 1: CAATCTGAATTCCGGTCTCCC
DNA 2: TGGTGGCTACGACGGGATT
B28: UUGGGUC (DNA:RNA)
RNA: B17 RNA with A25U, A28G, C29G, A30U
DNA 1: CAATCTGAATTCCGGTCTCCC
DNA 2: TGGTGGCTACGACGGGATT
B29: ACUAUAG (DNA:RNA)
RNA: B17 RNA with U26C, G27U, C29U, C31G
DNA 1: CAATCTGAATTCCGGTCTCCC
DNA 2: TGGTGGCTACGACGGGATT
B30: GAAUUAC (DNA:RNA)
RNA: B17 RNA with A25G, U26A, G27A, A28U, C29U
DNA 1: CAATCTGAATTCCGGTCTCCC
DNA 2: TGGTGGCTACGACGGGATT
B31: UUUGUUC (DNA:RNA)
RNA: B1 RNA with C26U, A29U, C30U, G31C
DNA 1: CAATCTGAATTCCGGTCTCCC
DNA 2: TGGTGGCTACGACGGGATT

biological target: T1, RBFOX1 RRM RbFoxmut (Fox-RRM*) (Homo sapiens, UniProt Q9NWB1 109-208, R118D;E147R;N151S;E152T); assay: EMSA; HiTS-Eq, 1 nM pool, 10 min; buffer printed only for the single-RNA assays: 10 mM Tris pH 7.5, 150 mM NaCl, 3.4 mM EDTA, 0.001% NP-40, 30 C; conditions: tags: His6 N-terminal (pET28a); label: 5' 32P
T1 sequence: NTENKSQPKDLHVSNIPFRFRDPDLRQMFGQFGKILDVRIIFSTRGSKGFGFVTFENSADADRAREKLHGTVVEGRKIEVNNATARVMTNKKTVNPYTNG
Outline: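 Purified wild-type or mutant RbFox RRM at increasing concentrations was equilibrated with 1 nM of 5′-radiolabelled RNA carrying 7 randomized nucleotides for 10 min in 50 µL. Unbound RNA was separated by 8% native PAGE and sequenced. Relative association constants came from read-count changes of each RNA species compared with the control reaction, normalised to the cognate motif.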

Binder | binding signal
B1 | 0.0906 KA relative to UGCAUGU
B2 | 0.279 KA relative to UGCAUGU
B3 | 0.11 KA relative to UGCAUGU
B4 | 0.126 KA relative to UGCAUGU
B5 | 0.105 KA relative to UGCAUGU
B6 | 0.161 KA relative to UGCAUGU
B7 | 0.0981 KA relative to UGCAUGU
B8 | 0.0585 KA relative to UGCAUGU
B9 | 0.118 KA relative to UGCAUGU
B10 | 0.107 KA relative to UGCAUGU
B11 | 0.123 KA relative to UGCAUGU
B12 | 0.121 KA relative to UGCAUGU
B13 | 0.0681 KA relative to UGCAUGU
B14 | 0.135 KA relative to UGCAUGU
B15 | 0.106 KA relative to UGCAUGU
B16 | 0.14 KA relative to UGCAUGU

Binder | binding signal
B17 | 0.0498 KA relative to UGCAUGU
B18 | 0.0689 KA relative to UGCAUGU
B19 | 0.0639 KA relative to UGCAUGU
B20 | 0.105 KA relative to UGCAUGU
B21 | 0.136 KA relative to UGCAUGU
B22 | 0.0926 KA relative to UGCAUGU
B23 | 0.0538 KA relative to UGCAUGU
B24 | 0.0855 KA relative to UGCAUGU
B25 | 0.119 KA relative to UGCAUGU
B26 | 0.0668 KA relative to UGCAUGU
B27 | 0.0666 KA relative to UGCAUGU
B28 | 0.179 KA relative to UGCAUGU
B29 | 0.128 KA relative to UGCAUGU
B30 | 0.117 KA relative to UGCAUGU
B31 | 0.0935 KA relative to UGCAUGU

Reference: article PMC9911399, “Two distinct binding modes provide the RNA-binding protein RbFox with extraordinary sequence specificity”
